Measured values from the supplement of paper PMC8728848.
This is one part of the list.

What was measured:
Assay in all cases: glycan array binding signal (z-score within array); higher = stronger binding
Settings in all cases: glycan notation: IUPAC condensed, linker removed
[1] = target: Fuc(a1-2)[GalNAc(a1-3)]Gal(b1-3)GlcNAc(b1-6)GalNAc
In short: (§1)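 Glycan array data were curated from 3228 arrays in the Consortium for Functional Glycomics database and kept only where the protein sequence was available. Glycan names were converted to IUPAC-condensed notation, and columns mapping to the same glycan were averaged. The binding signal is a within-array Z-score, averaged across arrays of the same protein sequence at different concentrations or buffers and across linkers. Negative Z-scores can be read as non-binding.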

[2] = target: Fuc(a1-2)[GalNAc(a1-3)]Gal(b1-4)Glc
In short: as §1

[3] = target: Fuc(a1-2)[GalNAc(a1-3)]Gal(b1-4)GlcNAc
In short: as §1

[4] = target: Fuc(a1-2)[GalNAc(a1-3)]Gal(b1-4)GlcNAc(b1-2)Man
In short: as §1

[5] = target: Fuc(a1-2)[GalNAc(a1-3)]Gal(b1-4)GlcNAc(b1-2)Man(a1-3)[Fuc(a1-2)[GalNAc(a1-3)]Gal(b1-4)GlcNAc(b1-2)Man(a1-6)]Man(b1-4)GlcNAc(b1-4)GlcNAc
In short: as §1

[6] = target: Fuc(a1-2)[GalNAc(a1-3)]Gal(b1-4)GlcNAc(b1-2)Man(a1-3)[Fuc(a1-2)[GalNAc(a1-3)]Gal(b1-4)GlcNAc(b1-2)Man(a1-6)]Man(b1-4)GlcNAc(b1-4)[Fuc(a1-6)]GlcNAc
In short: as §1

[7] = target: Fuc(a1-2)[GalNAc(a1-3)]Gal(b1-4)GlcNAc(b1-3)Gal(b1-4)GlcNAc
In short: as §1

[8] = target: Fuc(a1-2)[GalNAc(a1-3)]Gal(b1-4)GlcNAc(b1-3)Gal(b1-4)GlcNAc(b1-3)Gal(b1-4)GlcNAc
In short: as §1

[9] = target: Fuc(a1-2)[GalNAc(a1-3)]Gal(b1-4)GlcNAc(b1-3)GalNAc
In short: as §1

[10] = target: Fuc(a1-2)[GalNAc(a1-3)]Gal(b1-4)GlcNAc(b1-3)[Fuc(a1-2)[GalNAc(a1-3)]Gal(b1-4)GlcNAc(b1-6)]GalNAc
In short: as §1

[11] = target: Fuc(a1-2)[GalNAc(a1-3)]Gal(b1-4)GlcNAc(b1-6)GalNAc
In short: as §1

[12] = target: Fuc(a1-2)[GalNAc(a1-3)]Gal(b1-4)[Fuc(a1-3)]GlcNAc
In short: as §1

[13] = target: Fuc(a1-2)[GalNAc(a1-3)]Gal(b1-4)[Fuc(a1-3)]GlcNAc(b1-3)GalNAc
In short: as §1

[14] = target: Fuc(a1-2)[GalNAc(a1-4)]Gal(b1-4)GlcNAc
In short: as §1

[15] = target: Fuc(a1-2)[GalNAc(b1-3)]Gal
In short: as §1

[16] = target: Fuc(a1-3)GlcNAc
In short: as §1

[17] = target: Fuc(a1-3)[Gal(b1-4)]Glc6S
In short: as §1

[18] = target: Fuc(a1-3)[Gal(b1-4)]GlcNAc
In short: as §1

[19] = target: Fuc(a1-3)[Gal(b1-4)]GlcNAc(b1-2)Man
In short: as §1

[20] = target: Fuc(a1-3)[Gal(b1-4)]GlcNAc(b1-2)Man(a1-3)[Fuc(a1-3)[Gal(b1-4)]GlcNAc(b1-2)Man(a1-6)]Man(b1-4)GlcNAc(b1-4)GlcNAc
In short: as §1

[21] = target: Fuc(a1-3)[Gal(b1-4)]GlcNAc(b1-2)Man(a1-3)[Fuc(a1-3)[Gal(b1-4)]GlcNAc(b1-2)Man(a1-6)]Man(b1-4)GlcNAc(b1-4)[Fuc(a1-6)]GlcNAc
In short: as §1

[22] = target: Fuc(a1-3)[Gal(b1-4)]GlcNAc(b1-3)Gal(b1-3)[Fuc(a1-4)]GlcNAc
In short: as §1

[23] = target: Fuc(a1-3)[Gal(b1-4)]GlcNAc(b1-3)Gal(b1-4)[Fuc(a1-3)]GlcNAc
In short: as §1

[24] = target: Fuc(a1-3)[Gal(b1-4)]GlcNAc(b1-3)Gal(b1-4)[Fuc(a1-3)]GlcNAc(b1-3)Gal(b1-4)[Fuc(a1-3)]GlcNAc
In short: as §1

[25] = target: Fuc(a1-3)[Gal(b1-4)]GlcNAc(b1-3)GalNAc
In short: as §1

[26] = target: Fuc(a1-3)[Gal(b1-4)]GlcNAc(b1-6)GalNAc
In short: as §1

[27] = target: Fuc(a1-3)[Gal(b1-4)]GlcNAc(b1-6)[Gal(b1-3)GlcNAc(b1-3)]Gal(b1-4)Glc
In short: as §1

[28] = target: Fuc(a1-3)[Gal(b1-4)]GlcNAc6S
In short: as §1

[29] = target: Fuc(a1-3)[Gal3S(b1-4)]Glc
In short: as §1

[30] = target: Fuc(a1-3)[Gal3S(b1-4)]GlcNAc
In short: as §1

[31] = target: Fuc(a1-3)[Gal3S(b1-4)]GlcNAc6S
In short: as §1

[32] = target: Fuc(a1-3)[GalNAc(b1-4)]GlcNAc
In short: as §1

[33] = target: Fuc(a1-3)[GalNAc(b1-4)]GlcNAc6S
In short: as §1

[34] = target: Fuc(a1-4)GlcNAc
In short: as §1

[35] = target: Fuc(b1-3)GlcNAc
In short: as §1

[36] = target: Gal(a1-2)Gal
In short: as §1

[37] = target: Gal(a1-3)Gal
In short: as §1

[38] = target: Gal(a1-3)Gal(b1-3)GlcNAc
In short: as §1

[39] = target: Gal(a1-3)Gal(b1-3)GlcNAc(b1-2)Man
In short: as §1

[40] = target: Gal(a1-3)Gal(b1-3)GlcNAc(b1-2)Man(a1-3)[Gal(a1-3)Gal(b1-3)GlcNAc(b1-2)Man(a1-6)]Man(b1-4)GlcNAc(b1-4)GlcNAc
In short: as §1

[41] = target: Gal(a1-3)Gal(b1-3)GlcNAc(b1-3)GalNAc
In short: as §1

[42] = target: Gal(a1-3)Gal(b1-3)GlcNAc(b1-6)GalNAc
In short: as §1

[43] = target: Gal(a1-3)Gal(b1-3)[Fuc(a1-4)]GlcNAc(b1-2)Man(a1-3)[Gal(a1-3)Gal(b1-3)[Fuc(a1-4)]GlcNAc(b1-2)Man(a1-6)]Man(b1-4)GlcNAc(b1-4)GlcNAc
In short: as §1

[44] = target: Gal(a1-3)Gal(b1-4)Glc
In short: as §1

[45] = target: Gal(a1-3)Gal(b1-4)GlcNAc
In short: as §1

B1: Cohesin-mDC-ASGPR (Macaca mulatta) (protein)
chain: LDITSHHHHHHDDLDAVRIKVDTVNAKPGDTVRIPVRFSGIPSKGIANCDFVYSYDPNVLEIIEIEPGDIIVDPNPDKSFDTAVYPDRKIIVFLFAEDSGTGAYAITKDGVFATIVAKVKEGAPNGLSVIKFVEVGGFANNDLVEQKTQFFDGGVNVGDTTEPATPTTPVTTPTTTDDLDAASSQNSKFQRDLVTLRTDFSNFTSNTVAEIQALTSQGSSVEEMIASLKAEVEVIKQEQQAVHSEMLLRVQRLMQDLNKLTCQVATLKNNASTERTCCPVNWVEHQDSCYWFSRSGMPWAEAEKHCQLENAHLVVINSREEQNFVQEHLSFAYTWMGLSDREGAWKWVDGTDYETGFQNWKPGQPDDWQGHGLGGGEDCAHFHPDGRWNDDVCQRPYYWVCEAGLTQASQESH
[1]
  glycan array binding signal (z-score): 3.22
[2]
  glycan array binding signal (z-score): 2.19
[3]
  glycan array binding signal (z-score): 2.19
[4]
  glycan array binding signal (z-score): 2.31
[5]
  glycan array binding signal (z-score): 1.06
[6]
  glycan array binding signal (z-score): 0.667
[7]
  glycan array binding signal (z-score): 2.48
[8]
  glycan array binding signal (z-score): 1.17
[9]
  glycan array binding signal (z-score): -0.242
[10]
  glycan array binding signal (z-score): 2.34
[11]
  glycan array binding signal (z-score): 3.46
[12]
  glycan array binding signal (z-score): 0.425
[13]
  glycan array binding signal (z-score): -0.231
[14]
  glycan array binding signal (z-score): 3.47
[15]
  glycan array binding signal (z-score): 2.61
[16]
  glycan array binding signal (z-score): -0.404
[17]
  glycan array binding signal (z-score): -0.399
[18]
  glycan array binding signal (z-score): -0.384
[19]
  glycan array binding signal (z-score): -0.385
[20]
  glycan array binding signal (z-score): -0.391
[21]
  glycan array binding signal (z-score): -0.416
[22]
  glycan array binding signal (z-score): -0.396
[23]
  glycan array binding signal (z-score): -0.359
[24]
  glycan array binding signal (z-score): -0.414
[25]
  glycan array binding signal (z-score): -0.392
[26]
  glycan array binding signal (z-score): 1.97
[27]
  glycan array binding signal (z-score): -0.425
[28]
  glycan array binding signal (z-score): -0.397
[29]
  glycan array binding signal (z-score): -0.346
[30]
  glycan array binding signal (z-score): -0.393
[31]
  glycan array binding signal (z-score): -0.39
[32]
  glycan array binding signal (z-score): 2.58
[33]
  glycan array binding signal (z-score): 3.4
[34]
  glycan array binding signal (z-score): -0.418
[35]
  glycan array binding signal (z-score): -0.391
[36]
  glycan array binding signal (z-score): -0.392
[37]
  glycan array binding signal (z-score): -0.427
[38]
  glycan array binding signal (z-score): -0.213
[39]
  glycan array binding signal (z-score): -0.431
[40]
  glycan array binding signal (z-score): -0.322
[41]
  glycan array binding signal (z-score): -0.334
[42]
  glycan array binding signal (z-score): 2.66
[43]
  glycan array binding signal (z-score): -0.329
[44]
  glycan array binding signal (z-score): -0.402
[45]
  glycan array binding signal (z-score): -0.393
